# From the supplement of paper PMC8728848
# The other results are listed elsewhere or left out.
# Tests used:
# Assay in all cases: glycan array binding signal (z-score within array); higher = stronger binding
# Details in all cases: glycan notation: IUPAC condensed, linker removed
# [1] = molecular target: 3dGal(b1-3)[Fuc(a1-4)]Glc
# Summary of the method: (§1)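 Columns mapping to the same glycan were averaged after glycan names were converted to IUPAC-condensed notation. The data come from 3228 arrays in the Consortium for Functional Glycomics database, limited to those with an available protein sequence. Binding is reported as a within-array Z-score averaged across arrays of one protein sequence and across linkers.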
# [2] = molecular target: 3dGal(b1-4)Glc
# Summary of the method: as §1
# [3] = molecular target: Ara(a1-5)Ara(a1-5)Ara(a1-5)Ara(a1-5)Ara(a1-5)Ara
# Summary of the method: as §1
# [4] = molecular target: Ara(a1-5)Ara(a1-5)Ara(a1-5)Ara(a1-5)Ara(a1-5)Ara(a1-5)Ara
# Summary of the method: as §1
# [5] = molecular target: Fuc(a1-2)Gal
# Summary of the method: as §1
# [6] = molecular target: Fuc(a1-2)Gal(b1-3)GlcNAc(b1-3)Gal(b1-4)Glc
# Summary of the method: as §1
# [7] = molecular target: Fuc(a1-2)Gal(b1-3)GlcNAc(b1-3)[Fuc(a1-3)[Gal(b1-4)]GlcNAc(b1-6)]Gal(b1-4)Glc
# Summary of the method: as §1
# [8] = molecular target: Fuc(a1-2)Gal(b1-3)[Fuc(a1-4)]GlcNAc(b1-3)Gal(b1-4)Glc
# Summary of the method: as §1
# [9] = molecular target: Fuc(a1-2)Gal(b1-3)[Fuc(a1-4)]GlcNAc(b1-3)Gal(b1-4)[Fuc(a1-3)]GlcNAc(b1-3)Gal(b1-4)Glc
# Summary of the method: as §1
# [10] = molecular target: Fuc(a1-2)Gal(b1-3)[Fuc(a1-4)]GlcNAc(b1-3)[Fuc(a1-2)]Gal(b1-4)Glc
# Summary of the method: as §1
# [11] = molecular target: Fuc(a1-2)Gal(b1-3)[Fuc(a1-4)]GlcNAc(b1-3)[Fuc(a1-3)[Gal(b1-4)]GlcNAc(b1-6)]Gal(b1-4)Glc
# Summary of the method: as §1
# [12] = molecular target: Fuc(a1-2)Gal(b1-3)[Fuc(a1-4)]GlcNAc(b1-3)[Gal(b1-4)GlcNAc(b1-6)]Gal(b1-4)Glc
# Summary of the method: as §1
# [13] = molecular target: Fuc(a1-2)Gal(b1-4)[Fuc(a1-3)]GlcNAc(b1-3)Gal(b1-4)Glc
# Summary of the method: as §1
# [14] = molecular target: Fuc(a1-2)Gal(b1-4)[Fuc(a1-3)]GlcNAc(b1-3)[Fuc(a1-2)]Gal(b1-4)Glc
# Summary of the method: as §1
# [15] = molecular target: Fuc(a1-2)[Gal(a1-3)]Gal
# Summary of the method: as §1
# [16] = molecular target: Fuc(a1-2)[Gal(a1-3)]Gal(b1-4)GlcNAc(b1-3)Gal(b1-4)Glc
# Summary of the method: as §1
# [17] = molecular target: Fuc(a1-2)[GalNAc(a1-3)]Gal
# Summary of the method: as §1
# [18] = molecular target: Fuc(a1-2)[GalNAc(a1-3)]Gal(b1-3)GlcNAc(b1-3)Gal(b1-4)Glc
# Summary of the method: as §1
# [19] = molecular target: Fuc(a1-2)[GalNAc(a1-3)]Gal(b1-3)[Fuc(a1-4)]GlcNAc(b1-3)Gal(b1-4)Glc
# Summary of the method: as §1
# [20] = molecular target: Fuc(a1-2)[Neu5Ac(bond)]Gal(b1-3)GlcNAc(b1-3)Gal(b1-4)Glc
# Summary of the method: as §1
# [21] = molecular target: Fuc(a1-3)GlcNAc6S
# Summary of the method: as §1
# [22] = molecular target: Fuc(a1-3)[Gal(b1-4)]Glc
# Summary of the method: as §1
# [23] = molecular target: Fuc(a1-3)[Gal(b1-4)]GlcNAc
# Summary of the method: as §1
# [24] = molecular target: Fuc(a1-3)[Gal(b1-4)]GlcNAc(b1-3)Gal(b1-4)Glc
# Summary of the method: as §1
# [25] = molecular target: Fuc(a1-3)[Gal(b1-4)]GlcNAc(b1-3)Gal(b1-4)[Fuc(a1-3)]Glc
# Summary of the method: as §1
# [26] = molecular target: Fuc(a1-3)[Gal(b1-4)]GlcNAc(b1-3)[Fuc(a1-2)]Gal(b1-4)Glc
# Summary of the method: as §1
# [27] = molecular target: Fuc(a1-3)[Gal(b1-4)]GlcNAc(b1-3)[Fuc(a1-3)[Gal(b1-4)]GlcNAc(b1-6)]Gal(b1-4)Glc
# Summary of the method: as §1
# [28] = molecular target: Fuc(a1-3)[Gal3S(b1-4)]Glc
# Summary of the method: as §1
# [29] = molecular target: Fuc(a1-3)[Gal3S(b1-4)]GlcNAc
# Summary of the method: as §1
# [30] = molecular target: Fuc(a1-3)[Gal3S(b1-4)]GlcNAc(b1-3)Gal(b1-4)Glc
# Summary of the method: as §1
# [31] = molecular target: Fuc(a1-3)[Gal3S(b1-4)]GlcNAc6S(b1-3)Gal(b1-4)Glc
# Summary of the method: as §1
# [32] = molecular target: Fuc(a1-3)[Gal6S(b1-4)]GlcNAc(b1-3)Gal(b1-4)Glc
# Summary of the method: as §1
# [33] = molecular target: Fuc(a1-6)GlcNAc
# Summary of the method: as §1
# [34] = molecular target: Gal(a1-4)Gal(b1-4)Glc
# Summary of the method: as §1
# [35] = molecular target: Gal(a1-4)Gal(b1-4)GlcNAc
# Summary of the method: as §1
# [36] = molecular target: Gal(a1-6)Glc
# Summary of the method: as §1
# [37] = molecular target: Gal(b1-3)GalNAc
# Summary of the method: as §1
# [38] = molecular target: Gal(b1-3)GalNAc(b1-4)Gal(b1-4)Glc
# Summary of the method: as §1
# [39] = molecular target: Gal(b1-3)GalNAc(b1-4)Gal3S(b1-4)Glc
# Summary of the method: as §1
# [40] = molecular target: Gal(b1-3)GalNAc(b1-4)[Neu5Ac(a2-3)]Gal(b1-4)Glc
# Summary of the method: as §1
# [41] = molecular target: Gal(b1-3)GalNAc(b1-4)[Neu5Gc(a2-3)]Gal(b1-4)Glc
# Summary of the method: as §1
# [42] = molecular target: Gal(b1-3)GlcNAc
# Summary of the method: as §1
# [43] = molecular target: Gal(b1-3)GlcNAc(b1-3)Gal(b1-4)Glc
# Summary of the method: as §1
# [44] = molecular target: Gal(b1-3)GlcNAc(b1-3)Gal(b1-4)GlcNAc(b1-3)Gal(b1-4)Glc
# Summary of the method: as §1
# [45] = molecular target: Gal(b1-3)GlcNAc(b1-3)Gal(b1-4)GlcNAc(b1-6)[Gal(b1-3)GlcNAc(b1-3)]Gal(b1-4)Glc
# Summary of the method: as §1
binder,measurement,setting,value
"MIC4-A5 (Toxoplasma gondii), Q9XZH7 (protein) SPDFHDEVECVHTGNIGSKAQTIGEVKRASSLSECRARCQAEKECSHYTYNVKSGLCYPKRGKPQFYKYLGDMTGSRTCDTS",glycan array binding signal (z-score),[1],-0.323
same,glycan array binding signal (z-score),[2],-0.323
same,glycan array binding signal (z-score),[3],-0.323
same,glycan array binding signal (z-score),[4],-0.322
same,glycan array binding signal (z-score),[5],-0.322
same,glycan array binding signal (z-score),[6],-0.303
same,glycan array binding signal (z-score),[7],-0.317
same,glycan array binding signal (z-score),[8],-0.318
same,glycan array binding signal (z-score),[9],-0.323
same,glycan array binding signal (z-score),[10],-0.323
same,glycan array binding signal (z-score),[11],-0.322
same,glycan array binding signal (z-score),[12],-0.318
same,glycan array binding signal (z-score),[13],-0.323
same,glycan array binding signal (z-score),[14],-0.319
same,glycan array binding signal (z-score),[15],2.08
same,glycan array binding signal (z-score),[16],-0.323
same,glycan array binding signal (z-score),[17],-0.323
same,glycan array binding signal (z-score),[18],-0.316
same,glycan array binding signal (z-score),[19],-0.289
same,glycan array binding signal (z-score),[20],-0.323
same,glycan array binding signal (z-score),[21],-0.323
same,glycan array binding signal (z-score),[22],2.1
same,glycan array binding signal (z-score),[23],1.07
same,glycan array binding signal (z-score),[24],-0.321
same,glycan array binding signal (z-score),[25],-0.32
same,glycan array binding signal (z-score),[26],-0.323
same,glycan array binding signal (z-score),[27],-0.323
same,glycan array binding signal (z-score),[28],-0.323
same,glycan array binding signal (z-score),[29],-0.323
same,glycan array binding signal (z-score),[30],-0.323
same,glycan array binding signal (z-score),[31],-0.323
same,glycan array binding signal (z-score),[32],-0.323
same,glycan array binding signal (z-score),[33],-0.323
same,glycan array binding signal (z-score),[34],-0.314
same,glycan array binding signal (z-score),[35],-0.279
same,glycan array binding signal (z-score),[36],-0.21
same,glycan array binding signal (z-score),[37],0.274
same,glycan array binding signal (z-score),[38],2.49
same,glycan array binding signal (z-score),[39],5.56
same,glycan array binding signal (z-score),[40],5.3
same,glycan array binding signal (z-score),[41],4.89
same,glycan array binding signal (z-score),[42],1.02
same,glycan array binding signal (z-score),[43],3.01
same,glycan array binding signal (z-score),[44],-0.012
same,glycan array binding signal (z-score),[45],1.72
